{"source": "a collection of fitness landscapes (doi:10.1016/j.celrep.2020.107928)", "parents": {"B1": {"name": "Caulobacter ParB omega fusion; a variant is named by its letters at X, in order, B8GW30 (parent)", "chain": "MESVVVGEPGMSEGRRGLGRGLSALLGEVDAAPAQAPGEQLGGSREAPIEILQRNPDQPRRTFREEDLEDLSNSIREKGVLQPILVRPSPDTAGEYQIVAGERAWRAAQRAGLKTVPIMVRELDDLAVLEIGIIENVQRADLNVLEEALSYKVLMEKFERTQENIAQTIGKSXSHVANXMRLLXLPDEVQSYLVSGELTAXHARAIAAAADPVALAKQIIEGGLSVRETEALARKAPNLSAGKSKGGRPPRVKDTDTQALESDLSSVLGLDVSIDHRGSTGTLTITYATLEQLDDLCNRLTRGI"}}, "note": "Over roughly 81,000 sequences, “one-hybrid fitness for binding NBS DNA” has its median near -0.1; the highest 2% begin near 0.36. The list shows a part of the results."}
{"variants_of": "B1", "assay": "one-hybrid fitness for binding NBS DNA (the Noc-binding site; scaled: cognate 1, non-cognate 0); higher = stronger binding", "conditions": "with NBS DNA site", "outline": "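On M9-minus-histidine containing 0.1 mM IPTG and 5 mM 3-AT, E. coli USO cells with a HIS3 reporter, site 19 bp from the promoter, grew 48 hours at 37°C to select Caulobacter ParB libraries randomised at four specificity codons. Plasmids from before and after were Illumina-sequenced, with three replicate libraries pooled and variants under 10 reads left out. Fitness is the log change in variant-to-wild-type read ratio, rescaled against cognate and non-cognate.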"}
{"variant": "AEPL", "one-hybrid fitness for binding NBS DNA": "≤ 0.2"}
{"variant": "SLEI", "one-hybrid fitness for binding NBS DNA": "≤ 0.2"}
{"variant": "KNDT", "one-hybrid fitness for binding NBS DNA": "≤ 0.2"}
{"variant": "DPAA", "one-hybrid fitness for binding NBS DNA": "≤ 0.2"}
{"variant": "GTTA", "one-hybrid fitness for binding NBS DNA": "≤ 0.2"}
{"variant": "FLDN", "one-hybrid fitness for binding NBS DNA": "≤ 0.2"}
{"variant": "FSNG", "one-hybrid fitness for binding NBS DNA": "≤ 0.2"}
{"variant": "KKCC", "one-hybrid fitness for binding NBS DNA": "≤ 0.2"}
{"variant": "SLAF", "one-hybrid fitness for binding NBS DNA": "≤ 0.2"}
{"variant": "RKCD", "one-hybrid fitness for binding NBS DNA": "≤ 0.2"}
{"variant": "NIPP", "one-hybrid fitness for binding NBS DNA": "≤ 0.2"}
{"variant": "PRLS", "one-hybrid fitness for binding NBS DNA": "≤ 0.2"}
{"variant": "DYFD", "one-hybrid fitness for binding NBS DNA": "≤ 0.2"}
{"variant": "WNCG", "one-hybrid fitness for binding NBS DNA": "≤ 0.2"}
{"variant": "NYVC", "one-hybrid fitness for binding NBS DNA": "≤ 0.2"}
{"variant": "TGRI", "one-hybrid fitness for binding NBS DNA": "≤ 0.2"}
{"variant": "HIAR", "one-hybrid fitness for binding NBS DNA": "≤ 0.2"}
{"variant": "PEFN", "one-hybrid fitness for binding NBS DNA": "≤ 0.2"}
{"variant": "DVHM", "one-hybrid fitness for binding NBS DNA": "≤ 0.2"}
{"variant": "LVSV", "one-hybrid fitness for binding NBS DNA": "≤ 0.2"}
{"variant": "RSFW", "one-hybrid fitness for binding NBS DNA": "≤ 0.2"}
{"variant": "PDCT", "one-hybrid fitness for binding NBS DNA": "≤ 0.2"}
{"variant": "LYWF", "one-hybrid fitness for binding NBS DNA": "≤ 0.2"}
{"variant": "SFVG", "one-hybrid fitness for binding NBS DNA": "≤ 0.2"}
{"variant": "CENS", "one-hybrid fitness for binding NBS DNA": "≤ 0.2"}
{"variant": "IRKK", "one-hybrid fitness for binding NBS DNA": "≤ 0.2"}
{"variant": "MCYR", "one-hybrid fitness for binding NBS DNA": "≤ 0.2"}
{"variant": "SLYE", "one-hybrid fitness for binding NBS DNA": "≤ 0.2"}
{"variant": "GIPR", "one-hybrid fitness for binding NBS DNA": "≤ 0.2"}
{"variant": "AIMP", "one-hybrid fitness for binding NBS DNA": "≤ 0.2"}
{"variant": "NRLD", "one-hybrid fitness for binding NBS DNA": "≤ 0.2"}
{"variant": "LDAR", "one-hybrid fitness for binding NBS DNA": "≤ 0.2"}
{"variant": "SMKT", "one-hybrid fitness for binding NBS DNA": "≤ 0.2"}
{"variant": "QCQT", "one-hybrid fitness for binding NBS DNA": 0.526}
{"variant": "RFIA", "one-hybrid fitness for binding NBS DNA": "≤ 0.2"}
{"variant": "SNSY", "one-hybrid fitness for binding NBS DNA": "≤ 0.2"}
{"variant": "RRPK", "one-hybrid fitness for binding NBS DNA": "≤ 0.2"}
{"variant": "PQFK", "one-hybrid fitness for binding NBS DNA": "≤ 0.2"}
{"variant": "KQLS", "one-hybrid fitness for binding NBS DNA": "≤ 0.2"}
{"variant": "LFNV", "one-hybrid fitness for binding NBS DNA": "≤ 0.2"}
{"variant": "LRVQ", "one-hybrid fitness for binding NBS DNA": "≤ 0.2"}
{"variant": "LIKC", "one-hybrid fitness for binding NBS DNA": "≤ 0.2"}
{"variant": "RRAL", "one-hybrid fitness for binding NBS DNA": "≤ 0.2"}
{"variant": "WCKG", "one-hybrid fitness for binding NBS DNA": "≤ 0.2"}
{"variant": "MTEF", "one-hybrid fitness for binding NBS DNA": "≤ 0.2"}
{"variant": "RYSK", "one-hybrid fitness for binding NBS DNA": "≤ 0.2"}
{"variant": "KFTF", "one-hybrid fitness for binding NBS DNA": "≤ 0.2"}
{"variant": "VINF", "one-hybrid fitness for binding NBS DNA": "≤ 0.2"}
{"variant": "KRAW", "one-hybrid fitness for binding NBS DNA": "≤ 0.2"}
{"variant": "SETV", "one-hybrid fitness for binding NBS DNA": "≤ 0.2"}
{"variant": "TADY", "one-hybrid fitness for binding NBS DNA": "≤ 0.2"}
{"variant": "VCGG", "one-hybrid fitness for binding NBS DNA": "≤ 0.2"}
{"variant": "DINN", "one-hybrid fitness for binding NBS DNA": "≤ 0.2"}
{"variant": "LRPY", "one-hybrid fitness for binding NBS DNA": "≤ 0.2"}
{"variant": "NHHR", "one-hybrid fitness for binding NBS DNA": "≤ 0.2"}
{"variant": "QHTC", "one-hybrid fitness for binding NBS DNA": "≤ 0.2"}
{"variant": "EAYC", "one-hybrid fitness for binding NBS DNA": "≤ 0.2"}
{"variant": "CVHG", "one-hybrid fitness for binding NBS DNA": "≤ 0.2"}
{"variant": "DRVC", "one-hybrid fitness for binding NBS DNA": "≤ 0.2"}
{"variant": "QPQK", "one-hybrid fitness for binding NBS DNA": "≤ 0.2"}
{"variant": "RWSD", "one-hybrid fitness for binding NBS DNA": "≤ 0.2"}
{"variant": "DSHM", "one-hybrid fitness for binding NBS DNA": "≤ 0.2"}
{"variant": "LNNN", "one-hybrid fitness for binding NBS DNA": "≤ 0.2"}
{"variant": "YMQC", "one-hybrid fitness for binding NBS DNA": "≤ 0.2"}
{"variant": "VLST", "one-hybrid fitness for binding NBS DNA": "≤ 0.2"}
{"variant": "STMM", "one-hybrid fitness for binding NBS DNA": "≤ 0.2"}
{"variant": "FQVG", "one-hybrid fitness for binding NBS DNA": "≤ 0.2"}
{"variant": "RSWS", "one-hybrid fitness for binding NBS DNA": 0.238}
{"variant": "LANT", "one-hybrid fitness for binding NBS DNA": "≤ 0.2"}
{"variant": "MKQG", "one-hybrid fitness for binding NBS DNA": "≤ 0.2"}
{"variant": "FAIL", "one-hybrid fitness for binding NBS DNA": "≤ 0.2"}
{"variant": "LHII", "one-hybrid fitness for binding NBS DNA": "≤ 0.2"}
{"variant": "DRDR", "one-hybrid fitness for binding NBS DNA": "≤ 0.2"}
{"variant": "WKML", "one-hybrid fitness for binding NBS DNA": "≤ 0.2"}
{"variant": "IVDT", "one-hybrid fitness for binding NBS DNA": "≤ 0.2"}
{"variant": "YDYG", "one-hybrid fitness for binding NBS DNA": "≤ 0.2"}
{"variant": "IRHV", "one-hybrid fitness for binding NBS DNA": "≤ 0.2"}
{"variant": "GTSS", "one-hybrid fitness for binding NBS DNA": "≤ 0.2"}
{"variant": "CNSR", "one-hybrid fitness for binding NBS DNA": "≤ 0.2"}
{"variant": "GPET", "one-hybrid fitness for binding NBS DNA": "≤ 0.2"}
{"variant": "FVAT", "one-hybrid fitness for binding NBS DNA": "≤ 0.2"}
{"variant": "TNMM", "one-hybrid fitness for binding NBS DNA": "≤ 0.2"}
{"variant": "CGAR", "one-hybrid fitness for binding NBS DNA": 0.441}
{"variant": "DVLM", "one-hybrid fitness for binding NBS DNA": "≤ 0.2"}
